# The list shows a part of the results.
# B1: Gal 9 (Homo sapiens), O00182 (protein)
# chain: MAFSGSQAPYLSPAVPFSGTIQGGLQDGLQITVNGTVLSSSGTRFAVNFQTGFSGNDIAFHFNPRFEDGGYVVCNTRQNGSWGPEERKTHMPFQKGMPFDLCFLVQSSDFKVMVNGILFVQYFHRVPFHRVDTISVNGSVQLSYISFQNPRTVPVQPAFSTVPFSQPVCFPPRPRGRRQKPPGVWPANPAPITQTVIHTVQSAPGQMFSTPAIPPMMYPHPAYPMPFITTILGGLYPSKSILLSGTVLPSAQRFHINLCSGNHIAFHLNPRFDENAVVRNTQIDNSWGSEERSLPRKMPFVRGQSFSVWILCEAHCLKVAVDGQHLFEYYHRLRNLPTINRLEVGGDIQLTHVQT
# How the values were obtained:
# Assay in all cases: glycan array binding signal (z-score within array); higher = stronger binding
# Conditions in all cases: glycan notation: IUPAC condensed, linker removed
# Fuc(a1-2)Gal = target: Fuc(a1-2)Gal
# Method in brief: (§1)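 The Consortium for Functional Glycomics database supplied 3228 glycan arrays, of which those lacking an available protein sequence were dropped. The binding signal, a within-array Z-score, was averaged across arrays of the same protein sequence and across linkers. Negative scores can be read as non-binding.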
# Fuc(a1-2)Gal(b1-3)GalNAc = target: Fuc(a1-2)Gal(b1-3)GalNAc
# Method in brief: as §1
# [1] = target: Fuc(a1-2)Gal(b1-3)GalNAc(a1-3)[Fuc(a1-2)]Gal(b1-4)Glc
# Method in brief: as §1
# [2] = target: Fuc(a1-2)Gal(b1-3)GalNAc(a1-3)[Fuc(a1-2)]Gal(b1-4)GlcNAc
# Method in brief: as §1
# [3] = target: Fuc(a1-2)Gal(b1-3)GalNAc(b1-3)Gal
# Method in brief: as §1
# [4] = target: Fuc(a1-2)Gal(b1-3)GalNAc(b1-3)Gal(a1-4)Gal(b1-4)Glc
# Method in brief: as §1
# [5] = target: Fuc(a1-2)Gal(b1-3)GalNAc(b1-4)[Neu5Ac(a2-3)]Gal(b1-4)Glc
# Method in brief: as §1
# Fuc(a1-2)Gal(b1-3)GlcNAc = target: Fuc(a1-2)Gal(b1-3)GlcNAc
# Method in brief: as §1
# [6] = target: Fuc(a1-2)Gal(b1-3)GlcNAc(b1-2)Man(a1-3)[Fuc(a1-2)Gal(b1-3)GlcNAc(b1-2)Man(a1-6)]Man(b1-4)GlcNAc(b1-4)GlcNAc
# Method in brief: as §1
# [7] = target: Fuc(a1-2)Gal(b1-3)GlcNAc(b1-2)Man(a1-3)[Fuc(a1-2)Gal(b1-3)GlcNAc(b1-2)Man(a1-6)]Man(b1-4)GlcNAc(b1-4)[Fuc(a1-6)]GlcNAc
# Method in brief: as §1
# [8] = target: Fuc(a1-2)Gal(b1-3)GlcNAc(b1-3)Gal(b1-4)Glc
# Method in brief: as §1
# [9] = target: Fuc(a1-2)Gal(b1-3)GlcNAc(b1-3)GalNAc
# Method in brief: as §1
# [10] = target: Fuc(a1-2)Gal(b1-3)GlcNAc(b1-3)[Fuc(a1-2)Gal(b1-3)GlcNAc(b1-6)]GalNAc
# Method in brief: as §1
# [11] = target: Fuc(a1-2)Gal(b1-3)GlcNAc(b1-3)[Fuc(a1-3)[Gal(b1-4)]GlcNAc(b1-6)]Gal(b1-4)Glc
# Method in brief: as §1
# [12] = target: Fuc(a1-2)Gal(b1-3)GlcNAc(b1-3)[Gal(b1-4)GlcNAc(b1-6)]Gal(b1-4)Glc
# Method in brief: as §1
# [13] = target: Fuc(a1-2)Gal(b1-3)GlcNAc(b1-3)[Neu5Ac(a2-6)Gal(b1-4)GlcNAc(b1-6)]Gal(b1-4)Glc
# Method in brief: as §1
# [14] = target: Fuc(a1-2)Gal(b1-3)GlcNAc6S
# Method in brief: as §1
# [15] = target: Fuc(a1-2)Gal(b1-3)[Fuc(a1-4)]GlcNAc
# Method in brief: as §1
# [16] = target: Fuc(a1-2)Gal(b1-3)[Fuc(a1-4)]GlcNAc(b1-2)Man(a1-3)[Fuc(a1-2)Gal(b1-3)[Fuc(a1-4)]GlcNAc(b1-2)Man(a1-3)]Man(b1-4)GlcNAc(b1-4)GlcNAc
# Method in brief: as §1
# [17] = target: Fuc(a1-2)Gal(b1-3)[Fuc(a1-4)]GlcNAc(b1-2)Man(a1-3)[Fuc(a1-2)Gal(b1-3)[Fuc(a1-4)]GlcNAc(b1-2)Man(a1-6)]Man(b1-4)GlcNAc(b1-4)GlcNAc
# Method in brief: as §1
# [18] = target: Fuc(a1-2)Gal(b1-3)[Fuc(a1-4)]GlcNAc(b1-2)Man(a1-3)[Fuc(a1-2)Gal(b1-3)[Fuc(a1-4)]GlcNAc(b1-2)Man(a1-6)]Man(b1-4)GlcNAc(b1-4)[Fuc(a1-6)]GlcNAc(b1-4)[Fuc(a1-6)]GlcNAc
# Method in brief: as §1
# [19] = target: Fuc(a1-2)Gal(b1-3)[Fuc(a1-4)]GlcNAc(b1-3)[Fuc(a1-3)[Gal(b1-4)]GlcNAc(b1-6)]Gal(b1-4)Glc
# Method in brief: as §1
# [20] = target: Fuc(a1-2)Gal(b1-3)[Fuc(a1-4)]GlcNAc(b1-3)[Gal(b1-4)GlcNAc(b1-6)]Gal(b1-4)Glc
# Method in brief: as §1
# [21] = target: Fuc(a1-2)Gal(b1-4)Fuc(a1-3)]GlcNAc(b1-2)Man(a1-3)[Fuc(a1-2)Gal(b1-4)[Fuc(a1-3)]GlcNAc(b1-2)Man(a1-6)]Man(b1-4)GlcNAc(b1-4)GlcNAc
# Method in brief: as §1
# Fuc(a1-2)Gal(b1-4)Glc = target: Fuc(a1-2)Gal(b1-4)Glc
# Method in brief: as §1
# Fuc(a1-2)Gal(b1-4)Glc6S = target: Fuc(a1-2)Gal(b1-4)Glc6S
# Method in brief: as §1
# Fuc(a1-2)Gal(b1-4)GlcNAc = target: Fuc(a1-2)Gal(b1-4)GlcNAc
# Method in brief: as §1
# [22] = target: Fuc(a1-2)Gal(b1-4)GlcNAc(b1-2)Man
# Method in brief: as §1
# [23] = target: Fuc(a1-2)Gal(b1-4)GlcNAc(b1-2)Man(a1-3)[Fuc(a1-2)Gal(b1-4)GlcNAc(b1-2)Man(a1-6)]Man(b1-4)GlcNAc(b1-4)GlcNAc
# Method in brief: as §1
# [24] = target: Fuc(a1-2)Gal(b1-4)GlcNAc(b1-2)Man(a1-3)[Fuc(a1-2)Gal(b1-4)GlcNAc(b1-2)Man(a1-6)]Man(b1-4)GlcNAc(b1-4)[Fuc(a1-6)]GlcNAc
# Method in brief: as §1
binder,measurement,setting,value
B1,glycan array binding signal (z-score),Fuc(a1-2)Gal,-0.307
same,glycan array binding signal (z-score),Fuc(a1-2)Gal(b1-3)GalNAc,-0.313
same,glycan array binding signal (z-score),[1],-0.317
same,glycan array binding signal (z-score),[2],-0.285
same,glycan array binding signal (z-score),[3],-0.31
same,glycan array binding signal (z-score),[4],-0.306
same,glycan array binding signal (z-score),[5],-0.311
same,glycan array binding signal (z-score),Fuc(a1-2)Gal(b1-3)GlcNAc,-0.265
same,glycan array binding signal (z-score),[6],0.332
same,glycan array binding signal (z-score),[7],-0.234
same,glycan array binding signal (z-score),[8],0.837
same,glycan array binding signal (z-score),[9],-0.3
same,glycan array binding signal (z-score),[10],-0.196
same,glycan array binding signal (z-score),[11],0.106
same,glycan array binding signal (z-score),[12],2.32
same,glycan array binding signal (z-score),[13],-0.211
same,glycan array binding signal (z-score),[14],-0.282
same,glycan array binding signal (z-score),[15],-0.292
same,glycan array binding signal (z-score),[16],-0.283
same,glycan array binding signal (z-score),[17],-0.328
same,glycan array binding signal (z-score),[18],-0.257
same,glycan array binding signal (z-score),[19],-0.301
same,glycan array binding signal (z-score),[20],0.018
same,glycan array binding signal (z-score),[21],-0.266
same,glycan array binding signal (z-score),Fuc(a1-2)Gal(b1-4)Glc,-0.304
same,glycan array binding signal (z-score),Fuc(a1-2)Gal(b1-4)Glc6S,-0.295
same,glycan array binding signal (z-score),Fuc(a1-2)Gal(b1-4)GlcNAc,-0.293
same,glycan array binding signal (z-score),[22],-0.312
same,glycan array binding signal (z-score),[23],1.95
same,glycan array binding signal (z-score),[24],-0.322

# — the supplement of paper PMC8728848
